Laboratory results from the RNAGym collection of RNA variant scans (doi:10.7554/elife.90254).
The source gives no read counts; variants with many changes may rest on few reads.

B1: LINE1-mini (parent)
chain: GGCAGAGCUCAACACAGCGUGGCAAAGUGGCUGUGGCUAGACUGCC

Variants of: B1
Test: self-cleavage, relative activity (ratio to wild type); higher = more cleavage; in vitro, sequencing; the parent is a self-cleaving ribozyme

Row | Variant | self-cleavage
1 | G7A A11G C23A C31A | 0.03
2 | G2U G5A C10G G30C G33A C37A A39G | 0.01
3 | A14G U20A C31U | 0.03
4 | U38C G40C G44U | 0.06
5 | A6G C18G C37A U38G U43C | 0.01
6 | G19C G27U G30A C46G | 0.86
7 | C15A C18A G27U C37G C46U | 0.04
8 | G2A A16U G35C G40U | 0.13
9 | U9G C13G A25U | 0.06
10 | G7U C8G U20G C46A | 0.09
11 | G1A C10A C13A G33U G44A | 0.05
12 | A11C A12U A24C C46U | 0.03
13 | A16U G27U G30U G44C | 0.08
14 | C3A A4U A24G G29U C37G | 0.45
15 | G22U C23G C46G | 1.93
16 | G2U G36U C45G | 0.15
17 | G19A C37A A39U G40C G44A | 0.06
18 | C8A C15G C31A | 0.03
19 | G5C U9A C18U G22C A26U U32A | 0.01
20 | C3U C15A C42A | 0.11
21 | C18G G33U C37A A41C | 0.04
22 | A6G C8U G30A | 0.13
23 | U9A G35C G36C C42U | 0.01
24 | U28C G40U G44C | 0.02

Row | Variant | self-cleavage
25 | C15A C18U G33C U34A A41C | 0.01
26 | G40C C42A G44C | 0.08
27 | A4G A6G C15A G19U U32G G40A | 0.02
28 | C10U A14G U32A C42U | 0.01
29 | A6U C10A G17U | 0.06
30 | C3A U20G C46G | 0.36
31 | G21C C37A G40A | 0.11
32 | C31U G36A G40U | 0.03
33 | A16G G21U G27C | 0.52
34 | A4U G29C C42G | 0.13
35 | A14U G21C G22C | 0.03
36 | G5C C10A A11C A14C C46U | 0.02
37 | U20A G21C U34A | 0.51
38 | A12C A16G C31G G40U C42U | 0.01
39 | G2U U20G C37U A39G | 0.01
40 | U20G U32G G44C | 0.03
41 | C10A C13A G29U C46G | 0.01
42 | A6C C13G U32A C37A | 0.06
43 | C18U G35A C45A | 0.07
44 | A6C U9C A16U G44C | 0.04
45 | A4C G7A A39U | 0.11
46 | U9C G17A A25U G33C | 0.01
47 | A4C C15G G27C G29A C42U | 0.01
48 | G19C C42U U43A | 0.13

Row | Variant | self-cleavage
49 | G7U C18U G35U | 0.02
50 | U20A C23U G36C | 0.02
51 | A4C G40C G44C | 0.06
52 | G1A C10A A41C | 0.04
53 | A26U A41G U43G | 0.01
54 | G7A G27U G36U | 0.01
55 | A11U G36A C45U | 0.02
56 | C8U C18G G22U | 0.23
57 | U9A C15U U28G | 0.36
58 | A6C C42G C45U | 0.04
59 | A12G G19A C46G | 0.03
60 | A16U C18G C31U C45A | 0.03
61 | C3G A14U C18A | 0.03
62 | G33A G35U C42G C45A | 0.05
63 | C3G C18A G29U G30C G33A | 0.02
64 | G29U U32C G35C G40A | 0.06
65 | G7A C23G C46U | 0.21
66 | G7U C10A C15G G33C | 0.01
67 | C23G G27A A39C C42A | 0.06
68 | A6C C13G G36U | 0.05
69 | G5C A6C A16C A41C | 0.07
70 | A12G U34A C46A | 0.02
71 | A4U G27C G29C | 0.31
72 | A14C G30C C37U | 0.17

Row | Variant | self-cleavage
73 | G5A C10U G19U A26C | 0.04
74 | C18A G19C C23U U32A G35C | 0.1
75 | A24C G36A A39G | 0.1
76 | G7U A14G G27U G40A | 0.18
77 | A4C G27A C42A C46A | 0.06
78 | C23U G40U C45A | 0.28
79 | C3A G17U G36U A39U | 0.12
80 | A4G G7U G17C G21U | 0.06
81 | G1C G19A G29U C45G | 0.2
82 | C3G A12G C23A C42U | 0.22
83 | C10A A16U U20G G22U G27U U38C | 0.02
84 | C10A U38A G40U C42U C45U | 0
85 | C23A G36U C46A | 0.07
86 | G1C C10A C46A | 0.01
87 | G1C A4U G19U G30U | 0.01
88 | G1U A41C C46G | 0.01
89 | G2A A6C U20A | 0.25
90 | C3U A12U C15U U20C G29C G30A | 0.12
91 | G5A A6C C31A A39G | 0.02
92 | U20G U28G G30A | 0.38
93 | G22A G35A G44U | 0.06
94 | G2C C13G A25U | 0.15
95 | G7A G19A G27U A41C | 0.27
96 | C10A C31G C45U | 0.03

Row | Variant | self-cleavage
97 | U9G G19C G21C U28C A39C A41G | 0
98 | A4U A14G G19U C45G C46A | 0.01
99 | G2U C3U G5C C8U C13A C18A C37G A41C C45G | 0.01
100 | C23A A39C G40A | 0.12
101 | A16C C23A U32C C46A | 0.07
102 | G30C G33U G35C | 0.04
103 | A4G G5A G27U G40A | 0.07
104 | G17A G21U G40C C42A | 0.08
105 | A41G U43C C45A | 0.06
106 | G7U C13U C15G G21U C42G G44C | 0.08
107 | G1A G22C A25U G35C | 0.02
108 | G1A G2U G33U | 0.43
109 | A12C A14C A26C C31A U32A | 0.01
110 | G21C G22A G36C U38C | 0.03
111 | A11U C13G C15G A26G | 0
112 | G2U A4C G17C G30U | 0.01
113 | C10U U32C G36C | 0.01
114 | C8A C18G G22A G27A C37A C46G | 0.06
115 | A24G G40C A41U U43C | 0.01
116 | A6G U9G G29A | 0.01
117 | G1C A12U C13U | 0.04
118 | A14C A26G G44A | 0.09
119 | G2U U9G G21C G33C G36C | 0.01
120 | G40C A41C C46U | 0.06

Row | Variant | self-cleavage
121 | G2C G5A A12G G17U G27C U38G C46G | 0.06
122 | C23U C37U A39G | 0.03
123 | A4U C15U G19A U20A G29U | 1.01
124 | G2U C8A G35U C37A | 0.02
125 | G1U C31G G35A | 0.01
126 | C3G G7U A12U C18A G33A | 0.08
127 | A25U G36U C37A | 0.04
128 | A6U U28C C31U U38C | 0.03
129 | C10A U28C G29A | 0.03
130 | C3U C8U A26U U38G | 0
131 | G2C C3U A4G G19U | 0.1
132 | G1U A26U C31U | 0.03
133 | A4C G5A A16U U28A G44C C46U | 0.06
134 | C10A C31U C46G | 0.06
135 | C3G G17U A26C | 0.05
136 | A4U G22U C23U A39U | 0.08
137 | G5A A12C G30C C31G G35A C37A | 0
138 | G2U G17A G22U G33U | 0.02
139 | C15A G21U A24C G40C | 0.02
140 | G17A U38A A39U | 0.1
141 | G5A A11U C23U G35C G36A | 0
142 | C23A U28C G29A U38A G40U | 0.14
143 | G5A G27U G36A G40A | 0.21
144 | A12G U20G G44U | 0.01

Row | Variant | self-cleavage
145 | A6G A25C U28C | 0.02
146 | G1U C3A C10A C18U G33A | 0.01
147 | A14G G17A G27A C42U C46G | 0.11
148 | C8A A16U G19A U20A | 0.04
149 | A11C A16G A25U U38A C45A | 0
150 | G21C A25G U34C | 0.03
151 | U20G C23A A24U G35C C42G | 0.09
152 | C13A A26C C45A | 0.18
153 | A6G A39C A41G | 0.05
154 | G2U A24G G36A U38C G40A | 0.01
155 | C15U A26U C31U U38A | 0.02
156 | G2A C3A C8G U9A U32A | 0.69
157 | G5C G21A G40A | 0.1
158 | C10U G30C G44U | 0.15
159 | G1C G17A G36U | 0.01
160 | G1U G5C C23G | 0.04
161 | G17A G22U G36C | 0.03
162 | G7A C10A A14G G35C G44C | 0.02
163 | A25C A26G G29C U32G A41C G44A | 0.04
164 | G5U G17C G36U | 0.04
165 | G27U C37G U43G | 0.04
166 | C3A U9G G33A | 0.06
167 | G1U C3A A6C C8G U9C C42U | 0.08
